This is an account of results in PubChem BioAssay AID2060909 (Molecular Pharmacology Branch, DTP, NCI, 2025).

In the assay the test system is 362531-283-R-J2-PDC complex spheroid viability. Put plainly: Anticancer human tumor 362531-283-R-J2-PDC patient-derived colon adenocarcinoma cell line growth inhibition [RAS]. To be noted: stronger effect = lower value. From the text: RAS pathway inhibitors in Combinations in Complex Spheroids
A high-throughput screen of multi-cell type tumor spheroids was designed to identify active combinations of RAS pathway inhibitors and targeted small molecules. Complex spheroids include a stromal component modeled by human endothelial cells (HUVEC) and fibroblasts modeled by human mesenchymal stem cells (MSCs). The concentration ranges selected for each drug and investigational agent were based upon clinically achievable concentrations if the clinical Cmax of the agent was known.
Compounds. The drugs and investigational agents: abemaciclib (NSC768073), cobimetinib (NSC768068), divarasib (GDC6063, NSC841802), docetaxel (NSC628503), GDC-1971 (RLY-1971, NSC841576), gemcitabine (NSC613327), inavolisib (NSC800729), ipatasertib (NSC767898), KB-0742 (NSC834161), MRTX-1133 (NSC836407), osimertinib (NSC779217), RMC-4630 (NSC839698), RMC-6236 (NSC851965), RMC-6291 (NSC852671), Ro-3306 (NSC812927), sapanisertib (NSC764658), SN-38 (NSC673596), staurosporine (NSC755774), SY5609 (NSC837396), and tovorafenib (DAY101, NSC766906), were obtained from the National Cancer Institute (NCI) Developmental Therapeutics Program Chemical Repository. The FDA-approved anticancer drug set is available from the NCI Developmental Therapeutics Program. […] The stock solutions were prepared in dimethyl sulfoxide (DMSO, Sigma-Aldrich, St. Louis, MO, cat. D2650) at 800-fold the tested concentration and stored at -70 degrees C prior to their use. All drugs and investigational agents were tested over a range starting from a high concentration at or near the clinical Cmax and decreasing in half-log increments. If the clinical Cmax for an agent had not been determined, the highest concentration tested was 10 microM.
Cell Culture. All cells were maintained in an incubator at 37 degrees C and 5% CO2 with 95% humidity. The PDC lines were cultured according to standard operating procedures established by the NCI PDMR. All PDCs were thawed and cultured in Matrigel-coated flasks prepared with a working solution of 1X Ham's F-12 nutrient mix, without supplementation (Invitrogen, Waltham, MA, cat. 11765054), 100 U/mL penicillin-streptomycin (Invitrogen, cat. 15140122), and 2.5% Matrigel (Corning Inc., Corning, NY, cat. 354248) for the first three passages. The 362531-283-R-J2-PDC and 782815-120-R-J1-PDC lines were cultured in 6C/Colon 1B media, which includes advanced DMEM/F-12 (Thermo Fisher Scientific, cat. 12634028), 10 mM HEPES (Thermo Fisher Scientific, cat. 15630080), 1X GlutaMAX supplement (Thermo Fisher Scientific, cat. 35050061), 0.1 mg/mL primocin (InvivoGen, San Diego, CA, cat. ant-pm-2), 10% defined fetal bovine serum, heat inactivated (HyClone Laboratories Inc., Logan, UT, cat. SH30070.03HI), 50% L-WRN conditioned media (ATCC, cat. CRL-3276), 1.25 mM N-Acetyl-L-cysteine (Sigma-Aldrich, cat. A9165), 10 mM nicotinamide (Sigma-Aldrich, cat. N0636), 1X B-27 supplement (Thermo Fisher Scientific, cat. 17504044), 1X N-2 supplement (Thermo Fisher Scientific, cat. 17502048), 50 ng/mL human EGF (Thermo Fisher Scientific, cat. PHG0311), and 10 microM Y-27632 dihydrochloride (Tocris Bioscience, cat. 1254). The K12877-001-R-J1-PDC line was cultured in 6I media, which includes all 6C/Colon 1B media plus 10 ng/mL human FGF-10 (PeproTech, cat. 100-26), 1 ng/mL human FGF-2 (PeproTech, cat. 100-18B), 1 µM prostaglandin E2 (Tocris Bioscience, cat. 2296), […] hydrocortisone (Sigma-Aldrich, cat. H4001), and […] bovine insulin (Sigma-Aldrich, cat. I6634). The K86415-001-R-J1-PDC line was cultured in 6D media, which includes all 6C/Colon 1B media components minus the L-WRN conditioned media. The 485176-168-R4-J1-PDC was cultured in PANC media, which includes all 6C/Colon 1B media plus 100 ng/mL human FGF-10 (PeproTech, cat. 100-26), 500 nM SB-431542 (Selleckchem, cat. S1067), and 10 nM gastrin (Tocris Bioscience, cat. 3006). […]

Some entries of the source have several records that differ or are many. This list holds those alone. The source may hold further records. Values given together are repeated measurements (runs, samples, wells, individuals or studies).
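Note: spheroids exposed to the agents for 7 days before readout; luminescence viability as percent of DMSO vehicle control wells.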

On to `C=CC(=O)N1CCN(c2nc(OCC3CCCN3C)nc3c(F)c(-c4nc(N)cc(C)c4C(F)(F)F)c(Cl)cc23)C(C)C1` (stereo unspecified), for which the viability, T/C (compound alone 1 µM) was 103, 101, 104, 100, 102, 99.3, 107, 96.6, 115, 106, 89.8, 99.9%. As to `C#Cc1c(F)ccc2cc(O)cc(-c3ncc4c(N5CC6CCC(C5)N6)nc(OCC56CCCN5CC(F)C6)nc4c3F)c12` (stereo unspecified), the viability, T/C (compound alone 3.16 µM) was 74.2, 75.3, 69.6, 65.7, 67.1, 60.5, 89.6, 69.1%. Regarding `C[C@@H](NC(=O)c1ncnc(N)c1Cl)c1ncc(C(=O)Nc2cc(C(F)(F)F)c(Cl)cn2)s1`, the viability, T/C (compound alone 0.316 µM) is on record as 81.4, 108, 93.5, 104%. As to `O=C(c1ccc(F)c(F)c1Nc1ccc(I)cc1F)N1CC(O)([C@@H]2CCCCN2)C1`, the viability, T/C (compound alone 0.0316 µM) was 108, 82.7, 101, 95.2%. `CC1(O)CCCC1n1c(=O)c(C(F)F)cc2cnc(NC3CCN(S(C)(=O)=O)CC3)nc21` (stereo unspecified): the viability, T/C was 70.2, 94, 77.9, 65.3% (compound alone 1 µM) and 54.5, 48.6, 37.4, 72.2% (compound alone 10 µM). For `CC(Nc1ccc2c(c1)OCCn1cc(N3C(=O)OCC3C(F)F)nc1-2)C(N)=O` (stereo unspecified), under “compound alone 0.316 µM”, the viability, T/C was 90.2, 87.7, 60.6, 69.5%.

Regarding `CCN1CCN(Cc2ccc(Nc3ncc(F)c(-c4cc(F)c5nc(C)n(C(C)C)c5c4)n3)nc2)CC1`, the viability, T/C (compound alone 0.0316 µM) is listed as 59.5, 99.8, 96.3, 95.6% and the viability, T/C (compound alone 1 µM) is on record as 45.5, 50.3, 78.6, 76.5%. Consider `CC(C)n1nc(-c2ccc3oc(N)nc3c2)c2c(N)ncnc21`, for which the viability, T/C is given as 107, 103, 81.6, 84.5% (compound alone 0.01 µM) and 34.8, 45.5, 58.1, 74.6% (compound alone 0.1 µM).
